Reference: the supplement of paper PMC3334620
In all, about 33,000 sequences were measured (“E-score (-0.5 to 0.5)”: median about -0.054, highest 2% from about 0.39 on). The list shows a part of the results.

target: Ylr278c (UniProt Q05854); assay: PBM E-score (8-mer binding enrichment) (E-score (-0.5 to 0.5)); higher = stronger / more preferred TF binding; most listed sequences are background and not binding sites; conditions: protein concentration: 200 nM; construct: GST-DNA-binding domain
Outline: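 GST-tagged yeast TFs (full-length or DNA-binding domain) were made by PURExpress in vitro transcription/translation and applied at about 100-200 nM to universal all-10-mer Agilent arrays. The arrays were made double-stranded by primer extension, on fresh or once-stripped slides. Bound protein was detected with fluorescent anti-GST, and scans were normalised with masliner. Each ungapped eight-base word, pooled with its reverse complement, received an E-score (modified Wilcoxon-Mann-Whitney statistic) from the Universal PBM Analysis Suite.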

Sequence	PBM E-score
GCTTCTCC	0.205
CTGGTACC	-0.0388
TTCGCCAA	-0.216
ACAGTGAC	-0.11
CATCGGCG	0.304
CGTCAATA	-0.107
ATGCGGAC	0.374
ATTTGGCG	-0.0905
AGACTCGA	-0.128
GGTACCAC	-0.0762
GCATAAGA	-0.0502
CTCTGGAC	-0.0996
CTCGGCTA	0.0928
ATAGTACC	-0.0594
ATTGCCAG	0.0457
AATACCAC	-0.0734
ACTGTCCT	-0.131
AATTTCGG	0.319
AAATTTTG	-0.107
AGCACTGC	-0.166
AAGTCAGC	-0.0474
TAACTCTA	-0.177
GCGCTAGA	-0.0362
CAGAACAC	0.0343
TGGCTTAA	-0.11

Sequence	PBM E-score
AAGGTTCA	-0.0585
TCGCTAGA	-0.208
AAGAGTAT	-0.263
AGCACAGC	0.0001
AGGCCGAC	0.324
TTGGCCAA	-0.201
CAAATCCC	0.174
CTGTCCGA	0.335
CACAAGAC	-0.172
AACAGGCT	-0.245
CATATCCA	-0.214
ATGGATCA	-0.124
AAGCCTGG	-0.0749
CCTGTGGC	-0.166
AGTTTTAA	-0.0278
AGGCTACG	-0.25
ACCGAACG	0.201
GCGCGAAA	0.109
GTAAAAAC	-0.0871
GCTCCCTA	-0.252
CCTAAACG	-0.0312
GCTCGGAA	0.338
AGCTGTGG	-0.238
GACTTCGC	0.222
CTGTTTGA	-0.216

Sequence	PBM E-score
CGCTGTTC	-0.109
AATGTAGG	-0.0899
CCCTAGAC	-0.19
AGTCCCTG	-0.179
AGCGGGTG	0.114
GATTACAC	-0.0511
GCAAGGGA	-0.22
ACCTTCAC	-0.195
ATATTATC	-0.0613
AGTCGCTA	-0.312
CATAGCCA	-0.115
CTAGGCCC	-0.00349
GTGGGACA	-0.069
CAAGTCCC	-0.108
GACCGTAC	-0.216
CACTGAAA	0.0396
ATGTCCAC	0.0449
ATCCTATA	-0.0589
CGATAATC	0.0657
ACGTCACC	-0.0921
ACACCAGG	-0.186
AAATCAAC	-0.111
CTCGCTCC	0.0527
AGGTATTC	-0.0359
AATACGCA	-0.0994

Sequence	PBM E-score
ACGCGGGC	0.186
AGCGAGCA	-0.192
GTCGCCTA	-0.0998
CCACGGAC	0.272
CGAGCCAA	-0.0654
CAGAGCGG	0.125
CCTGCCTA	-0.101
AGTTGTTG	-0.0499
ATATACTA	0.0964
CCCGTGTA	0.122
AAGAAACG	-0.00449
TCAGTCGA	-0.204
CCTGAGAA	-0.159
GGCTACCC	-0.161
GGATCCGA	0.35
GACATGTC	-0.0847
ATTATCTA	-0.1
AAAAAACA	0.0735
ACCCGGAC	0.396
GTTATGCA	-0.167
GAAGGCGA	0.00481
ATCATACC	0.0189
CGTAACTA	-0.164
AAAAGAGC	-0.201
AGTATATC	-0.0628

Sequence	PBM E-score
ATGTAGGA	-0.0983
ATCGACAT	-0.0486
CGGTTTTC	0.211
CGTTCGGC	0.235
GCTGCACC	0.00051
CGCATTAC	0.142
CTACCATC	-0.163
AGAGCTTA	-0.0628
ATCTCATA	-0.168
CCCGGAAC	0.4
AACTGTAA	-0.0107
GAGGCCGC	0.143
ACCTCATC	-0.0463
CGGGCTTA	0.246
CGGACCCG	0.394
CGTCGGCC	0.266
ATGACAAG	0.00284
GAGCCTTA	-0.0189
GACTTGGC	-0.214
GTACGTAC	-0.146
GTCATTCA	-0.0381
GCAAAACA	-0.0358
AATACTAT	-0.153
CGCGGGGA	0.364
ACCCGTAA	-0.017

Sequence	PBM E-score
CCCTCGAC	-0.0105
AAGATATA	0.0151
CTGCAACA	0.0318
CCTGTGTA	-0.182
ATCTATCA	-0.0379
AGAGATAC	0.00525
CAGGAGAG	-0.205
AGGGTGTC	-0.065
CCAAGAGG	-0.208
AGAGCAAA	-0.204
CAAGACCA	-0.212
ATAGAATA	-0.0964
AAGGAGGC	-0.284
GTCTGCTA	-0.184
CCCCCTCG	-0.272
CATGACGC	-0.0913
ACTTCTGC	-0.0381
ATTATGGG	0.0241
CTCAGAAA	-0.257
CTTACCCC	-0.0218
ACTTGTTG	-0.337
AGTACGCA	-0.201
AAGAGACG	0.0605
AAGGAGTG	-0.179
ATGTACCG	0.112

Sequence	PBM E-score
ACCAATAT	-0.0997
CAGACTAA	-0.196
CGGCTCTA	0.19
ACCTCGCA	-0.0606
AACAGCAA	-0.0673
CGCCAAGC	-0.0363
ACACACGC	0.0421
AACCGTGA	-0.0334
GAGACCTC	-0.0742
CACGGTGA	0.0314
CTCGGCGC	0.253
ACGCAATG	-0.175
CGGCCATA	-0.0205
CGCCATAG	-0.135
ATAGCACC	-0.0166
AGGTCTTA	-0.211
ATGTAAAG	-0.0899
CAGCATAG	-0.147
CAGAGTCG	-0.0745
AATAGAGG	-0.0471
CCGCCGAG	0.355
ATCTTACG	0.0571
